Source: PubChem BioAssay AID1508623 (National Center for Advancing Translational Sciences (NCATS), 2021)
Screen size: about 48,000 compounds; about 450 (0.94%) were called active. Roughly 19% stayed inconclusive and do not appear here. Calls come from the whole dose curve; as a rule, active = well fitted inhibition curve with a large enough effect; inconclusive = small, poorly fitted or top-dose-only effect; inactive = no such curve, though single readings can be large or run the other way. The list shows a part of the results.

assay: Primary qHTS for Identification of Small Molecule Inhibitors of Huntingtin Promoter Activity; details: HEK293 HTT promoter firefly luciferase reporter (activity 0% = vehicle and -100% = no light), 24 h; series mostly up to 57.5 µM; activity change, negative = inhibition: at the top concentration; note: nearly all actives have a fitted effect of over 50% in size
How it was run: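 Quantitative HTS used concentration series of up to 57.5 uM final on HEK293 luciferase reporter cells, 24 h at 37 degrees C. Readout was Dual-Glo firefly luminescence.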
Potency is the fitted concentration of half-maximal effect.

Activity change, negative = inhibition, inactive:
CCN(Cc1ccccc1)C(=O)c1cc2c(s1)-c1c(C)cccc1OC2 -2.42%, CCN1CCN(c2c(S(=O)(=O)c3ccc(C)c(C)c3)cnc3ccc(F)cc23)CC1 -18.7%, O=c1c2cnn(-c3ccc(Cl)cc3)c2ncn1Cc1cccc(C(F)(F)F)c1 -7.22%, COc1ccc(NC(=O)CSc2cc(-c3ccccc3)nc(C)n2)cc1 -18.6%, CCOc1ccc(-c2csc(/C(C#N)=C/c3ccc(Br)cc3)n2)cc1 -2.37%, CCC(=O)Nc1ccc2nc(SCCOc3ccc(C)cc3)sc2c1 -5.62%, Cc1nc([N+](=O)[O-])cn1-c1ccc([N+](=O)[O-])cc1 -2.32%, CCS(=O)(=O)c1ncc(N(Cc2ccc(F)cc2)Cc2ccco2)c(C(=O)Nc2cc(C)ccc2C)n1 -28.7%, CCOC(=O)C1CCN(C(=O)CN2c3ccc(CC)cc3-c3ccccc3S2(=O)=O)CC1 -10.2%, CCCN(CCC)C(=O)Cn1c(=O)n(-c2ccc(OC)cc2)c(=O)c2ccc(C(=O)NCc3ccc(C)cc3)cc21 -11.9%, CCCn1c(NCc2ccc(N(CC)CC)cc2)nc2ccccc21 -20.8%, CN1CCN(c2nc3c(S(=O)(=O)c4ccccc4)nnn3c3ccsc23)CC1 -4%, Cc1ccc(-n2c(SCC(=O)Nc3cccc(C)c3)nc3c(oc4ccccc43)c2=O)cc1 -7.26%, CO[C@@H]1[C@@H](O[C@@H]2O[C@H](C)[C@@H](O[C@H]3C[C@@](C)(O)[C@@H](O)[C@H](C)O3)[C@H](N(C)C)[C@H]2O)[C@@H](CC=O)C[C@@H](C)[C@@H](O[C@@H]2CC[C@H](N(C)C)[C@@H](C)O2)/C=C/C=C/C[C@@H](C)OC(=O)C[C@H]1OC(C)=O -2.48%, CCOC(=O)C1CCCN(C(=O)c2ccc(-n3ccc4ccccc43)s2)C1 (stereo not drawn) -22.1%, COc1cccc(-c2ccc3c(N)c(C(=O)Nc4cc(F)ccc4F)sc3n2)c1 24.5%, Cc1cc(OI)c(C(C)C)cc1-c1cc(C(C)C)c(OI)cc1C 10.7%, Cc1ccc(NC(=O)Cn2cc(S(=O)(=O)N3CCC(C)CC3)c3ccccc3c2=O)c(Br)c1 -26.6%, CCCCN(CCCNC(=O)c1c(C)oc2nc[nH]c(=O)c12)Cc1ccccc1 -15.2%, CNC(=O)c1c(NC(=O)c2ccc(S(=O)(=O)N3CCCCC3C)cc2)sc2c1CCC2 (stereo not drawn) -16%, Cc1ccc(Nc2c(-c3cccnc3)nc3ccc(Br)cn23)cc1 14.3%, COc1ccc(-c2nnc(SCC(=O)N(C)Cc3ccccc3)o2)cc1OC -0.563%, COc1cccc(N2CCN(C(=O)CN3C(=O)COc4ccc(S(=O)(=O)N5CCC(C)CC5)cc43)CC2)c1 -12.6%, COc1ccc(C)cc1-n1nnc(C(=O)Nc2cccc(SC)c2)c1C -28.4%, COc1ccc(C(=O)NCC(c2cccnc2)N2CCc3ccccc32)cc1OC (stereo not drawn) -26.4%, Cc1cccc(CNC(=O)c2ccc(NC(=O)N3CCSc4ccccc43)cc2)c1 -19.8%, CC1CCc2c(sc(NC(=O)COc3ccccc3C(C)(C)C)c2C#N)C1 (stereo not drawn) -8.17%, Cc1ccc(NC(=O)Cn2c(SCc3ccc(F)cc3)nc3cccnc32)cc1F -13.8%, O=C(NCCCN1CCN(c2ccccc2F)CC1)c1cc2c(s1)-c1ccccc1OC2 -26.8%, O=C(O)c1ccc(NC(=O)c2cc3ccccc3o2)cc1 40.6%, CCc1ccc(-n2nc(C)c3c(C)cc(=O)n(CC(=O)Nc4ccccc4C(=O)OC)c32)cc1 -3.49%, CCCCOc1ccc(C(=O)N/C(=C\c2ccc(Br)cc2)C(=O)NC2CCCCC2)cc1 5.93%, CSCCC(NS(=O)(=O)c1ccc2c(c1)oc(=O)n2C)C(=O)N1CCN(c2ccc(F)cc2)CC1 (stereo not drawn) 2.9%, Cc1cccc(-n2ccnc2SCC(=O)Nc2ccc3c(c2)OCO3)c1 -19.6%, O=C(Nc1cccc(F)c1)C1CCN(c2nc3ccccc3[nH]2)CC1 5.11%, CCc1cccc(NC(=O)CCS(=O)(=O)c2ccc3nc(C)sc3c2)c1 -11.2%, COc1ccc(CNc2ncnc3c2cnn3-c2ccc(C)c(C)c2)cc1 33.3%, COc1ccc(CN2C(=O)c3oc4ccccc4c(=O)c3C2c2ccc(O)c(OC)c2)cc1 (stereo not drawn) 2.67%, CCCCSCCCNC(=O)C1CCC(CNS(=O)(=O)c2c(C)cc(C)cc2C)CC1 (stereo not drawn) -4.5%, CCOc1ccc(CNC(=O)c2ccc3c(c2)nc2n3CCC(C)C2)cc1OC (stereo not drawn) -19.7%, COc1cccc(C(=O)NC2CC(=O)N(c3ccc4c(c3)OCCO4)C2)c1OC (stereo not drawn) -1.09%, Cc1csc2nc(CCNS(=O)(=O)c3ccc(F)cc3)cn12 -3.55%, O=C(CCOc1ccccc1)N(Cc1cccnc1)c1nc2ccc(F)cc2s1 18.7%, CCOC(=O)c1c(NC(=O)c2ccc(OC)c(OC)c2)sc2c1CCCCC2 -0.947%, O=C(Nc1ccc2oc(-c3ccc(Cl)cc3)nc2c1)c1ccc2ccccc2c1 -7.88% [at 11.5 µM], CCN(C(=O)c1cc2c(=O)oc3ccc(C)cc3c2s1)c1ccccc1F -0.911%, CCOc1ccccc1NC(c1nnc(-c2ccccc2)o1)c1ccc(F)cc1Cl (stereo not drawn) -26.6%, CCN(CC)CCCN(c1ccccc1)C1Cc2ccccc2C1 -16.3%, CCOc1ccc(-c2oc3cc(Cl)ccc3c(=O)c2O)cc1OC 7.75%, COc1ccc(C2CC(=O)N(Cc3ccccc3)c3c2c(C)nn3-c2nc(C)cc(C)n2)c(OC)c1 (stereo not drawn) -14%, CCC(=O)N1CCc2cc(Br)cc(S(=O)(=O)CCC(=O)NCCc3ccccc3)c21 -2.41%, CCc1ccccc1NC(=O)Cn1cc2c(n1)CCC(C)C2 (stereo not drawn) -15.7%, CCc1ccc(NS(=O)(=O)c2ccc3[nH]cc(C(=O)N(C)Cc4ccco4)c(=O)c3c2)cc1 4.03%, CC(C)CN(CCNC(=O)c1cn(C)c2ccc(S(=O)(=O)N3CCCC3)cc2c1=O)CC(C)C -8.09%, CCCN(C(=O)CCNC(=O)Cn1cnc2ccccc2c1=O)c1cccc(C)c1 -3.46%, CCOC(=O)c1ccc2[nH]c(CSc3nnc(-c4cccc(F)c4)n3C)cc(=O)c2c1 1.65%, Cc1ccc(-n2nc(C(=O)N3CCN(c4cccc(C(F)(F)F)c4)CC3)c3c4ccccc4n(C)c3c2=O)cc1 -13.7%, Cc1ccc(C)c(-c2[nH]c3c(c2-c2c(-n4cccc4)n(C)c(=O)n(C)c2=O)c(=O)n(C)c(=O)n3C)c1 -13%, CCOc1cc(C2c3c(oc4ccccc4c3=O)C(=O)N2c2ccccn2)ccc1O (stereo not drawn) -13.1%, CCOC(=O)c1c(NC(=O)c2cc(Cl)ccc2Cl)sc2c1CCCC2 -10.3%, COc1ccc(OC)c(NC(=O)c2cc(=O)c3c(C)cc(C)cc3o2)c1 -11.5% [at 11.5 µM], Cc1ccc(CNc2cc(C)nc3nc(-c4cccc(C)c4)nn23)cc1 -22.5%, Cc1cn2c(=O)c(S(=O)(=O)NCc3ccccc3Cl)c(C)nc2s1 -0.467%, Cc1cc(C)n(CCc2nc3c4ccccc4nc(N4CCN(c5ccc(F)cc5)CC4)n3n2)n1 -6.01%, CCN(C(=O)CSc1nc2ccccc2n1CC(=O)Nc1ccc(F)cc1F)c1ccccc1 -34.3%, COc1ccc(-c2ccc(CCC(=O)O)n2-c2ccc(Cl)cc2C)cc1 -16.1%, CCOC(=O)c1cccc(NC(=O)CCc2c(C)nn(-c3ccc(N4CCOCC4)nn3)c2C)c1 -1.55%, CCc1ccc(-n2nc(CO)c(C(=O)NCc3ccccc3OC)n2)cc1 4.83%, COCCCn1c(=O)c2sccc2n2c(CCCC(=O)NCc3ccc(F)cc3)nnc12 -14.6%, Cc1ccc2[nH]c3c(=O)n(CC(=O)NCCc4ccc(Cl)cc4)ncc3c2c1 7.23%, COc1ccc(NC(=O)C2CCN(c3cnccn3)CC2)cc1Cl -20.5%, CCn1cc(S(=O)(=O)c2cccc(C)c2)c(=O)c2cc(F)c(N3CCN(c4ccccc4)CC3)cc21 -26.6%, CCCCSc1nnc2c(n1)OC(C)N(C(C)=O)c1ccccc1-2 (stereo not drawn) -3.77% [at 11.5 µM], CCc1ccccc1NC(=O)CC1Sc2ccc(C(F)(F)F)cc2NC1=O (stereo not drawn) -8.2%, COc1ccc(CCNC(=O)C2COc3ccccc3C2)cc1OC (stereo not drawn) -16.6%, COc1ccc(CCNC(=O)Cc2c(C)c3cc4c(C)coc4c(C)c3oc2=O)cc1 -8.63%, Cn1c(Oc2ccc(Cl)cc2)nc2c1c(=O)n(Cc1ccc(F)cc1)c(=O)n2C -4.49%, CC(=O)C1=C(O)C=C2Oc3c(C(C)=O)c(O)c(C)c(O)c3C2(C)C1=O (stereo not drawn) 0.475%, O=C(NCCc1ccccc1)c1ccc2c(c1)N(Cc1ccc(F)cc1)C(=O)c1ccccc1S2 11.6%, CCCCN(CC)C(=O)c1cc2c(=O)n3cccc(C)c3nc2s1 16.4%, COc1cc(Cl)c(C)cc1NC(=O)c1cnc(N2CCOCC2)c2ccccc12 -2.18%, Cc1cccn2c(=O)c3cc(C(=O)Nc4ccc(Cl)c(Cl)c4)sc3nc12 2.94%, Cc1ccc(Nc2ccc(N3CCN(C(=O)c4ccc([N+](=O)[O-])cc4)CC3)nn2)cc1 -7.3%, Cn1c(SCc2ccc(Br)cc2)nc2c([nH]c3ccccc32)c1=O -14.3%, O=C(c1ccc(Nc2nc3ccccc3n3nnnc23)cc1)N1CCN(c2cccc(C(F)(F)F)c2)CC1 -8.44%, CCOC(=O)c1cccc(NS(=O)(=O)c2cc3c(cc2C)NC(=O)CO3)c1 -19.6%, Cc1ccc(NC(=O)CN2C(=O)CC(C)Sc3ccccc32)c(C)c1 (stereo not drawn) -14%, Cc1ccc(C)c(NS(=O)(=O)c2cc3c4c(c2)C(C)C(=O)N4CCC3)c1 (stereo not drawn) -14.2%, CCNC(=O)Cn1nc(C)n2c(cc3c(OC)cccc32)c1=O -0.966%, Cc1c(Cl)cccc1-n1ncc(C(=O)N2CCOCC2)c1C1CCN(C(=O)OC(C)(C)C)CC1 -18.9%, Cc1cc(C)n(C(C)CC(=O)NCc2ccc(Cl)cc2)n1 (stereo not drawn) -1.88%, Cc1ccc(OCC(=O)OCc2cc(=O)n3nc(C4CC4)sc3n2)cc1 -22%

Potency, active:
COc1ccc(C(=O)NC(c2ccc(Cl)cc2)c2cc(Cl)c3cccnc3c2O)cc1 (stereo not drawn) 17.8 µM
